One experiment deals with T1, human TGFβ1 (human, UniProt P01137 part only).
T1 construct: also called hTGFβ1
Nature of the experiment: ELISA, plate coated with 0.5 µg/ml human TGFβ1, HRP secondary antibody, OD450. On the technique in general: In an ELISA, binding on a coated surface is turned into a signal by an enzyme label.

Experiment [1] concerns the target T2, human PD-L1 (human, UniProt Q9NZQ7).
T2 construct: whole, on cells; For the PD-L1 tf DLD1 cells the species of PD-L1 is not restated; also called PD-L1 tf CHO-S; PD-L1 tf DLD1
Kind of experiment: flow cytometry on PD-L1 tf DLD1 cells in a 1:1 mixture with DLD1 cells, PE goat anti-human IgG. In general terms: In flow cytometry, cells or beads pass a laser one at a time.

The target of experiment [2] is T3, human CD47 (human, UniProt Q08722).
T3 construct: whole, on cells; also called CD47 tf CHO-S; endogenous CD47 on FaDu and NCI-H460 cells
Nature of the experiment: flow cytometry on CD47 tf CHO-S cells, PE goat anti-human IgG; EC50 from the table under the curves.

Experiment [3] has as its target T2, human PD-L1. Nature of the experiment: flow cytometry on PD-L1 tf CHO-S cells, PE goat anti-human IgG; EC50 from the table under the curves.
Experiment [4] has as its target T3, human CD47. Kind of experiment: flow cytometry competition on CD47 tf CHO-S cells against a fixed concentration of biotinylated SIRPα_G4, streptavidin-PE; IC50 from the table under the curves.
For experiment [5], the target named is T2, human PD-L1. Kind of experiment: flow cytometry on PD-L1 tf DLD1 cells in a 1:1 mixture with DLD1 cells, PE goat anti-human IgG; these cells also bind the anti-CD47 controls (FIGS. 6A-6B), so the CD47 arm may add to the signal [K].
In experiment [6] the target is T3, human CD47. Nature of the experiment: flow cytometry on untransfected DLD1 cells in a 1:1 mixture with PD-L1 tf DLD1 cells; CD47 as the target on DLD1 is inferred from the controls of FIGS. 6A-6E, the filing does not name it [K].
Experiment [7] has as its target T2, human PD-L1. Nature of the experiment: flow cytometry competition on PD-L1 tf CHO-S cells against a fixed concentration of biotinylated PD1_G4, streptavidin-PE; IC50 from the table under the curves.

This note sets out measurements from patent US20240400691A1 (FBD BIOLOGICS, published 2024).

What is called EC50 (read off the curve) is the concentration at which the effect is half-maximal. By EC50 is commonly meant the concentration at which the effect is half-maximal. The low end stands for higher potency in that assay, the high end for lower potency in that assay. One may read the IC50 as the point on the concentration scale where inhibition reaches its midpoint. A low value points to inhibition by little substance.

T2 sequence (Q9NZQ7 19-290): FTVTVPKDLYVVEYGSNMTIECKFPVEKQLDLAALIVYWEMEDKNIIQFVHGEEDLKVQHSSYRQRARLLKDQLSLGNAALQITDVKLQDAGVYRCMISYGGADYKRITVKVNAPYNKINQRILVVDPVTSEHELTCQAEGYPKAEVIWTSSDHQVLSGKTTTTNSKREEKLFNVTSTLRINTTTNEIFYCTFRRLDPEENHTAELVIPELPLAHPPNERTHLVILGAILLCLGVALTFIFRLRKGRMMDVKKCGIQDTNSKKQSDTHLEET
Sequence of human TGFβ1 (P01137 279-390 limits assumed): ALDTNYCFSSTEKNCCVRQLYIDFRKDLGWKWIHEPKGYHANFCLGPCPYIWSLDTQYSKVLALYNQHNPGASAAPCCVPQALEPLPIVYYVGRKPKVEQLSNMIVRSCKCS

B1: G4_TGFβRII_mt4 (Fc fusion)
chain: [human IgG4 Fc with S228P (EU numbers) not shown]AGGGGSGGGGSGGGGSGGGGSGIPPHVQKSVNNDMIVTDNNGAVKFPQLCKFCDVRFSTCDNQKSCMSNCEITSICEKPQEVCVAVWRKNDENITLETVCHDPKLPYHDFILEDAASPKCIMKEKKKPGETFFMCSCSSEECNDNIIFSEEYNTSNPD
notes: TGFβ trap control protein
For B1, the “EC50 (read off the curve)” value with human TGFβ1 is around 0.4 nM. For the same molecule, the binding result with human PD-L1 [1] is reported as “no binding (tested: 500 nM)”.

B2: PS_G1_v5 (Fc fusion)
chain: QVQLVESGGGVVQPGRSLRLSCAASGGPFMSYAMGWFRQAPGKEREFVAAIRWNGISTFYADSVKGRFTISRDNSKNTLYLQMNSLRAEDTAVYYCAAAQTIVTVPENYHFDYWGQGTQVTVSSGSGGSGGSGGSGGSGGSGEEELQVIQPDKSVSVAAGESAILTCTVTSLYPVGPIQWFRGAGPARELIYNQKRQTFPRVTTVSESTKRFNMDFSISISNITPADAGTYYCVKFRKGSPDTEFKSGAGTELSVRAKPS[human IgG1 Fc with changes not shown]
notes: also called HCB301_v5 protein; double-targeting format
For B2, the EC50 with human CD47 [2] was 0.75 nM; in the experiment with human PD-L1 [3], 0.28 nM. Further, the binding result with human TGFβ1 is recorded as “no binding (tested: 500 nM)”. For the same molecule, the figures for the IC50 with human CD47 [4] and with human PD-L1 [7] were 1.2 nM and 0.398 nM, respectively. The “EC50 (read off the curve)” value was around 1 nM with human PD-L1 [5] and around 3 nM with human CD47 [6].
